Among all 330,000 compounds or so, about 4,200 (1.3%) were called active. The shares of active, inactive and inconclusive entries below differ from those in the screen. Calls follow the shape of the dose curve; as a rule, active = well fitted activation curve with a large enough effect; inconclusive = small, poorly fitted or top-dose-only effect; inactive = no such curve, though single readings can be large or run the other way. Potencies beside an inconclusive call are fits to weak or partial responses and may not hold up.
experiment: qHTS screen for small molecules that induce genotoxicity in human embryonic kidney (HEK293T) cells expressing luciferase-tagged ELG1; details: HEK293T ELG1-luciferase reporter, luminescence, 16 h; series mostly up to 46 µM; also: nearly all actives have a fitted effect of over 60% in size; as to activity change, positive = activation: % of control where 0% means no effect
Summary of the method: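 Cells (2,000/well) expressing the ELG1-luciferase fusion are dosed by pin tool and kept 16 hr at 37 °C, 5% CO2. Signal comes from ONE-Glo luciferase reagent after 30 min at room temperature.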
Potency is read from the fitted curve at half-maximal effect; tags tell the direction and shape of the fitted curve.

Which Potency does the source give for `O=C(Nc1ccc(CN2CCOCC2)cc1)c1ccc(F)cc1` here?
Its Potency is inconclusive: 13 µM [activator, partial curve].

With `CCCN1CCC(=O)N(CCO)CC1` as the compound, how does the Potency read?
The Potency was “inactive”.

Which Potency does the source give for `CC1=NN(C(N)=S)C(=O)C1N=Nc1ccc(Cl)cc1Cl` (centres undefined) here?
Its Potency is inconclusive: 23.1 µM [activator, partial curve, poor fit].

Which Potency does the source give for `CC(C)(C)OC(=O)COc1ccc(/C=N/NC(=O)CN2CCCCC2)cc1` here?
The Potency was inconclusive: 18.3 µM [activator, partial curve].

With `CC(NC(=O)c1cc(=O)[nH]c2ccc(Br)cc12)c1ccccc1` (centres undefined) as the compound, how does the Potency read?
Its Potency is inconclusive: 18.3 µM [activator, partial curve, poor fit].

Which activity change, positive = activation does the source give for `Cc1cccc(-n2nc3c(c2NC(=O)C(C)C)CSC3)c1` here?
Its activity change, positive = activation is inactive: -0.0248% [at 9.26 µM].

Which Potency does the source give for `COC(=O)c1ccc(/C=C/c2ccc3cccc(OC(C)=O)c3n2)cc1` here?
The Potency was inconclusive: 3.26 µM [activator, single point].

For `CCOC(=O)c1ccc(NC(=O)CC2SCCNC2=O)cc1` (centres undefined), which Potency is on record?
The Potency was inconclusive: 20.6 µM [activator, single point].

For `CCC(C)(C)NS(=O)(=O)c1cc(CN2C(=O)c3cccnc3C2=O)ccc1OC`, which Potency is on record?
Its Potency is “inactive”.

For `Cn1c(SCC(=O)c2cccs2)nnc1-c1ccco1`, which Potency is on record?
Its Potency is inconclusive: 29.1 µM [activator, single point].

With `COc1cc(NC(=O)c2cc([N+](=O)[O-])ccc2Br)ccc1NC(=O)c1ccco1` as the compound, how does the Potency read?
The Potency was inconclusive: 25.9 µM [activator, single point].

Which Potency does the source give for `O=C(CSc1nnc(-c2ccccc2Cl)o1)N1CCOCC1` here?
The Potency was inconclusive: 18.3 µM [activator, partial curve].

Which Potency does the source give for `CCCCC(=O)Nc1nnc(SCC(=O)Nc2ccc(OC)cc2)s1` here?
Its Potency is inconclusive: 23.1 µM [activator, single point].

With `COc1ccccc1NC(=O)Cc1coc2cc(C)ccc12` as the compound, how does the Potency read?
The Potency was inconclusive: 23.1 µM [activator, partial curve, poor fit].

Which Potency does the source give for `CCOc1ccc(NS(=O)(=O)c2ccc(C(=O)NCC(c3ccccc3OC)N3CCCC3)cc2)cc1` (centres undefined) here?
Its Potency is inconclusive: 4.11 µM [activator, full curve, poor fit].

With `Cc1cc(-c2ccccc2)nc(N2CCC(C(=O)NCc3ccccc3Cl)CC2)n1` as the compound, how does the Potency read?
Its Potency is inconclusive: 25.9 µM [activator, partial curve, poor fit].

For `COc1ccc(NC(=O)c2ccc(-c3csc(C)n3)cc2)cc1`, which Potency is on record?
Its Potency is inconclusive: 18.3 µM [activator, single point].

Which Potency does the source give for `Cc1cc(Cl)ccc1OCc1nc(-c2ccncc2)no1` here?
The Potency was inconclusive: 8.2 µM [activator, partial curve].

For `CCCNC(=O)c1cc(-c2ccco2)on1`, which Potency is on record?
Its Potency is active: 16.4 µM.

For `Clc1ccc(-c2cn3nc4c(nc3n2)CCCC4)cc1`, which Potency is on record?
Its Potency is inconclusive: 0.231 µM [activator, full curve, poor fit].

For `CC(=O)Oc1ccccc1-c1nc(C)nc(N(C)C(C)=O)n1`, which Potency is on record?
Its Potency is inconclusive: 25.9 µM [activator, partial curve, poor fit].

With `Cc1ccc(N2CCN(C(=S)c3ccc(N(C)C)cc3)CC2)cc1` as the compound, how does the Potency read?
Its Potency is inconclusive: 20.6 µM [activator, partial curve, poor fit].

For `CCOC(=O)c1sc(NC(=O)/C=C/c2c(F)cccc2Cl)nc1C`, which Potency is on record?
The Potency was “inactive”.

With `CCNc1nc(NCC)nc(SCC(C)=O)n1` as the compound, how does the Potency read?
Its Potency is inconclusive: 23.1 µM [activator, partial curve, poor fit].

Which Potency does the source give for `CCOc1ccc(NC(=S)NCCCN2CCOCC2)cc1` here?
Its Potency is “inactive”.

For `Cc1cnc(C(=O)Nc2ccc(C(C)C)cc2)cn1`, which Potency is on record?
The Potency was inconclusive: 2.59 µM [activator, full curve].

For `Cc1c(-c2cc(Br)ccc2O)nc2cc3c(cc2c1C)OCO3`, which Potency is on record?
Its Potency is inconclusive: 23.1 µM [activator, partial curve, poor fit].

With `O=C(NC(C(=O)c1ccccc1)N1CCCCC1)c1ccccc1` (centres undefined) as the compound, how does the Potency read?
Its Potency is inconclusive: 20.6 µM [activator, partial curve].

With `Cn1cc(-c2nnc(-c3ccccc3)o2)c2ccccc21` as the compound, how does the Potency read?
Its Potency is inconclusive: 1.64 µM [activator, full curve].

With `O=C(Nc1ccc2c(c1)CCC2)c1ccc(Br)s1` as the compound, how does the Potency read?
The Potency was inconclusive: 1.46 µM [activator, partial curve].

Which Potency does the source give for `Cn1ncc(Br)c1NC(=O)c1ccco1` here?
Its Potency is “inactive”.

Which activity change, positive = activation does the source give for `Cc1ccc(-n2nc3c(c2NC(=O)CC(C)C)CS(=O)(=O)C3)cc1` here?
The activity change, positive = activation was inactive: -2.86% [at 9.26 µM].

With `CC1CC(C)CN(CCCNC(=O)c2ccc3nc(N4CCCCC4)sc3c2)C1` (centres undefined) as the compound, how does the Potency read?
Its Potency is inconclusive: 23.1 µM [activator, partial curve, poor fit].

For `C[C@]12c3[nH]c4cc(-c5ccco5)ccc4c3CCN1C(=O)[C@@H](CC(=O)NCCC1=CCCCC1)C[C@@H]2C(=O)N1CCOCC1`, which Potency is on record?
The Potency was “inactive”.

With `CC1CC1c1ccc(/C=C(\C#N)C(=O)Nc2ccc(Cl)cc2)o1` (centres undefined) as the compound, how does the Potency read?
The Potency was inconclusive: 4.11 µM [activator, partial curve, poor fit].

With `O=C(O)c1ccc(-c2nnc(-c3cccc(Br)c3)o2)cc1` as the compound, how does the Potency read?
Its Potency is inconclusive: 6.51 µM [activator, partial curve, poor fit].

For `COc1ccccc1/C=C/C(=O)c1ccccc1`, which Potency is on record?
Its Potency is inconclusive: 20.6 µM [activator, single point].

Which Potency does the source give for `CCc1ccc(NC(=O)Nc2cccc(OC)c2)cc1` here?
Its Potency is inconclusive: 5.17 µM [activator, partial curve].

With `O=C(Nc1ccccc1)c1cc2ccccc2o1` as the compound, how does the Potency read?
The Potency was inconclusive: 0.731 µM [activator, full curve].

For `Cc1ccc(/C(O)=C2/C(=O)C(=O)N(c3ccccn3)C2c2ccc(F)cc2)cc1` (centres undefined), which Potency is on record?
The Potency was inconclusive: 25.9 µM [activator, partial curve, poor fit].

With `CCCCN1C(=O)C2(NNc3ccccc3O2)c2ccccc21` (centres undefined) as the compound, how does the Potency read?
The Potency was inconclusive: 20.6 µM [activator, single point].

With `c1ccc(-c2ccc(-c3nc(-c4cccnc4)no3)cc2)cc1` as the compound, how does the Potency read?
Its Potency is active: 2.31 µM.

Which Potency does the source give for `Cc1cc(C(=O)COc2cccnc2[N+](=O)[O-])c(C)n1Cc1ccco1` here?
Its Potency is “inactive”.

Which Potency does the source give for `O=C(COC(=O)C1=COCCO1)Nc1ccc([N+](=O)[O-])cc1C(F)(F)F` here?
Its Potency is “inactive”.

With `O=C1CCC(C(=O)Nc2cccc(S(=O)(=O)Nc3ccccc3F)c2)=NN1` as the compound, how does the Potency read?
Its Potency is “inactive”.

For `CC(C)CCOc1ccc(C(=O)NNC(=O)CNC(=O)c2ccccc2F)cc1`, which Potency is on record?
The Potency was “inactive”.

For `Cc1ccc(NCCC(=O)c2cccs2)cc1C`, which Potency is on record?
Its Potency is inconclusive: 5.8 µM [activator, partial curve].

With `CC(/C=N/NC(=O)c1ccccn1)=C\c1ccco1` as the compound, how does the Potency read?
Its Potency is inconclusive: 9.2 µM [activator, partial curve].

With `Cc1cnc(C(=O)Nc2ccc(C)c(S(=O)(=O)N(C)C)c2)cn1` as the compound, how does the Potency read?
Its Potency is “inactive”.

For `Cc1ccc(-c2ccc(/C=N/O)o2)cc1[N+](=O)[O-]`, which Potency is on record?
Its Potency is inconclusive: 20.6 µM [activator, partial curve, poor fit].

With `Cc1cc(C(=O)NCCc2ccccc2)ccc1[N+](=O)[O-]` as the compound, how does the Potency read?
Its Potency is inconclusive: 9.2 µM [activator, partial curve, poor fit].

For `COc1ccc(C(=O)NCCN2C(=O)S/C(=C\c3cccnc3)C2=O)cc1[N+](=O)[O-]`, which Potency is on record?
Its Potency is “inactive”.

For `Clc1ccc(-n2ncc3c(NCc4ccc5c(c4)OCO5)ncnc32)cc1`, which Potency is on record?
The Potency was inconclusive: 23.1 µM [activator, single point].

With `Cc1c(C)c2ccc(OC(C)C(=O)NC3CC(C)(C)NC(C)(C)C3)cc2oc1=O` (centres undefined) as the compound, how does the Potency read?
The Potency was inconclusive: 18.3 µM [activator, single point].

With `COc1ccc(/C=C/c2noc(-c3ccccc3O)n2)cc1` as the compound, how does the Potency read?
The Potency was inconclusive: 9.2 µM [activator, partial curve].

For `CC(=O)c1ccc(-n2c(C)ccc2-c2ccccc2)cc1`, which Potency is on record?
Its Potency is inconclusive: 14.6 µM [activator, partial curve, poor fit].

With `c1csc(CSc2nc3ccccc3s2)c1` as the compound, how does the Potency read?
Its Potency is active: 14.6 µM.

With `CCC1(CC)Nc2ccccc2C(=O)N1c1ccc(NC(C)=O)cc1` as the compound, how does the Potency read?
The Potency was inconclusive: 10.3 µM [activator, partial curve, poor fit].

Which Potency does the source give for `COc1ccc(/C=N/OC(=O)Nc2ccccc2OC)cc1` here?
The Potency was inconclusive: 20.6 µM [activator, single point].

With `CCN(CC)CCCNC(=O)c1cc(-c2ccc3c(c2)OCO3)on1` as the compound, how does the Potency read?
The Potency was “inactive”.

Which Potency does the source give for `Cc1cc(C(=O)COC(=O)c2ccc[nH]c2=O)c(C)n1C1CC1` here?
Its Potency is inconclusive: 25.9 µM [activator, single point].

For `O=C(c1ccco1)N1CCN(C(=O)c2cn(-c3ccccc3)nc2-c2ccc(F)cc2)CC1`, which Potency is on record?
The Potency was “inactive”.

With `O=C(N/N=C/c1ccc(OC(=O)c2cccs2)cc1)c1cccc(F)c1` as the compound, how does the Potency read?
The Potency was inconclusive: 18.4 µM [activator, single point].

With `Clc1ccc(OCc2cc(-c3ccccc3)no2)c(Cl)c1` as the compound, how does the Potency read?
The Potency was inconclusive: 0.58 µM [activator, partial curve].

Which Potency does the source give for `O=C(Nc1ccc(Cl)cn1)c1ccc2nccnc2c1` here?
Its Potency is inconclusive: 1.3 µM [activator, full curve].

Which Potency does the source give for `Cc1ccc(C(=O)Nc2ccc3nc(C)sc3c2)s1` here?
Its Potency is inconclusive: 3.66 µM [activator, partial curve].

For `Cc1ccc(C(=O)CSc2nc3ccccc3c(=O)n2N)o1`, which Potency is on record?
The Potency was inconclusive: 2.06 µM [activator, full curve].

With `Cc1ccc(OC(=O)c2cccc(S(=O)(=O)N(C)C)c2)c(-n2nc3ccccc3n2)c1` as the compound, how does the Potency read?
The Potency was active: 4.61 µM.

For `Cc1[nH]nc(Nc2ccc(C(C)C)cc2)c1[N+](=O)[O-]`, which Potency is on record?
The Potency was inconclusive: 11.6 µM [activator, partial curve, poor fit].

Source: PubChem BioAssay AID504466 (National Center for Advancing Translational Sciences (NCATS), 2011)
